From PMC12820563, “FoxP3 forms a head-to-head dimer in vivo and stabilizes its multimerization on adjacent microsatellites”
Some of the results follow.

These sequences were tested against T1, MBP-FoxP1dN (Mus musculus, UniProt P58462 326-579) (assay: PD-seq (MBP pull-down with sequencing); 20 mM Tris-HCl pH 7.5, 100 mM NaCl, 1.5 mM MgCl2, 0.4 uM protein, 0.1 uM dsDNA library, 30 min, room temperature, amylose pull-down; high values mean tight binding). Settings: protein: recombinant; tags: His6-MBP; chain copies: 2; dsDNA, one strand shown.
T1 sequence: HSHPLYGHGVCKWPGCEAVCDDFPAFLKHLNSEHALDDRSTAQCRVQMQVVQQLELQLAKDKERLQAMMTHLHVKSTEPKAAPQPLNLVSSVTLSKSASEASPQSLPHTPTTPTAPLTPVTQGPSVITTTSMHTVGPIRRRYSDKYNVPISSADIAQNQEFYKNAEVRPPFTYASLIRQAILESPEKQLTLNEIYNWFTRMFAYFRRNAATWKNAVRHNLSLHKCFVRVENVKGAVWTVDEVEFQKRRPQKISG
Method in brief: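 Protein and DNA were mixed at 0.4 µM and 0.1 µM and held for 30 min at room temperature in Tris pH 7.5 buffer with NaCl and MgCl2; the protein was a His6-MBP-tagged, N-terminally truncated mouse FoxP3 or FoxP1 fragment from E. coli, and the DNA a Klenow-filled double-stranded degenerate library. Amylose resin captured the complexes, which were washed three times. Binding is read as reads-per-million enrichment of pull-down versus input after Illumina sequencing, with replicates pooled.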

Sequence	binding signal
GATGATTGTTCTCCCAGCTGATGAATTCGGTTTGTCGAGTAAACAAATTTTCCTAATCTTTCTGTTCAAGCGCCATCTAC	1.11 RPM ratio (pull-down/input)
GATGATTGTTCTCCCAGCTGATGAATTGGTGTTATCGAGTAAACAAATTTTCCTAATCTTTCTGTTCAAGCGCCATCTAC	1.9 RPM ratio (pull-down/input)
GATGATTGTTCTCCCAGCTGATGAATTCCGACCATCGAGTAAACAAATTTTCCTAATCTTTCTGTTCAAGCGCCATCTAC	0.869 RPM ratio (pull-down/input)
GATGATTGTTCTCCCAGCTGATGAATTACAGCTCTCGAGTAAACAAATTTTCCTAATCTTTCTGTTCAAGCGCCATCTAC	0.893 RPM ratio (pull-down/input)
GATGATTGTTCTCCCAGCTGATGAATTTAATGGATCGAGTAAACAAATTTTCCTAATCTTTCTGTTCAAGCGCCATCTAC	0.919 RPM ratio (pull-down/input)
GATGATTGTTCTCCCAGCTGATGAATTGTCTACTTCGAGTAAACAAATTTTCCTAATCTTTCTGTTCAAGCGCCATCTAC	1.13 RPM ratio (pull-down/input)
GATGATTGTTCTCCCAGCTGATGAATTATGTCTATCGAGTAAACAAATTTTCCTAATCTTTCTGTTCAAGCGCCATCTAC	1.08 RPM ratio (pull-down/input)
GATGATTGTTCTCCCAGCTGATGAATTAAGCTAGTCGAGTAAACAAATTTTCCTAATCTTTCTGTTCAAGCGCCATCTAC	0.804 RPM ratio (pull-down/input)
GATGATTGTTCTCCCAGCTGATGAATTACTTAGATCGAGTAAACAAATTTTCCTAATCTTTCTGTTCAAGCGCCATCTAC	1.17 RPM ratio (pull-down/input)
GATGATTGTTCTCCCAGCTGATGAATTAATTTGCTCGAGTAAACAAATTTTCCTAATCTTTCTGTTCAAGCGCCATCTAC	0.959 RPM ratio (pull-down/input)
GATGATTGTTCTCCCAGCTGATGAATTGCTGGGGTCGAGTAAACAAATTTTCCTAATCTTTCTGTTCAAGCGCCATCTAC	0.846 RPM ratio (pull-down/input)
GATGATTGTTCTCCCAGCTGATGAATTATATTATTCGAGTAAACAAATTTTCCTAATCTTTCTGTTCAAGCGCCATCTAC	1.48 RPM ratio (pull-down/input)
GATGATTGTTCTCCCAGCTGATGAATTTTATACGTCGAGTAAACAAATTTTCCTAATCTTTCTGTTCAAGCGCCATCTAC	0.957 RPM ratio (pull-down/input)
GATGATTGTTCTCCCAGCTGATGAATTCTCTGTTTCGAGTAAACAAATTTTCCTAATCTTTCTGTTCAAGCGCCATCTAC	0.91 RPM ratio (pull-down/input)
GATGATTGTTCTCCCAGCTGATGAATTGTTCGATTCGAGTAAACAAATTTTCCTAATCTTTCTGTTCAAGCGCCATCTAC	1.06 RPM ratio (pull-down/input)
GATGATTGTTCTCCCAGCTGATGAATTTGCCGGGTCGAGTAAACAAATTTTCCTAATCTTTCTGTTCAAGCGCCATCTAC	0.784 RPM ratio (pull-down/input)
GATGATTGTTCTCCCAGCTGATGAATTATCAATCTCGAGTAAACAAATTTTCCTAATCTTTCTGTTCAAGCGCCATCTAC	1.02 RPM ratio (pull-down/input)
GATGATTGTTCTCCCAGCTGATGAATTCAAGTAGTCGAGTAAACAAATTTTCCTAATCTTTCTGTTCAAGCGCCATCTAC	0.874 RPM ratio (pull-down/input)
